Data taken from patent US20260034244A1 (PANOLOS BIOSCIENCE, published 2026).

T1: PLGF (UniProt P49763-2 19-149, limits assumed)
T1 construct: also called placental growth factor
T1 sequence (looked up): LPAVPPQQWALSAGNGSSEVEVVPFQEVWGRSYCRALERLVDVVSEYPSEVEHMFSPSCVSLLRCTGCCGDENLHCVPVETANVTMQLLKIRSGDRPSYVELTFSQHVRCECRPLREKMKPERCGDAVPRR

T2: VEGF-A (UniProt P15692-4 27-191, limits assumed)
T2 construct: also called vascular endothelial growth factor A
T2 sequence (looked up): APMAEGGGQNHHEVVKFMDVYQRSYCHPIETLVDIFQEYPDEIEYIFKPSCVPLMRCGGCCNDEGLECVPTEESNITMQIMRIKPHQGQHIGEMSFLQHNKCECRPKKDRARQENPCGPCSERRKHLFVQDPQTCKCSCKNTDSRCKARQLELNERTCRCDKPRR

B1: C77 (Fc fusion)
chain: EFGRPFVEMYSEIPEIIHMTEGRELVIPCRVTSPNITVTLKKFPLDTLIPDGKRIIWDSRKGFIISNATYKEIGLLTCEATVNGHLYKTNYLTHRQTNTIIDVQISTPSPVTLCRGHTLVLNCTATTPANTRVQMTWSYPDEKNKNASVRRRIDQSNSHANIFYSVLTIDGMTNSDQGLYTCRVRSGPSFKSVNTSVHIYDCSKVDKKVEPKSSDTPP[gap - human IgG1 Fc]
notes: Based on VEGF-Grab3
B2: C83 (Fc fusion)
chain: B1 chain with A129D
notes: Based on VEGF-Grab3; L258D/K300G/Q302T/K304S/K306Q
B3: C78 (Fc fusion)
chain: EFGRPFVEMYSEIPEIIHMTEGRELVIPCRVTSPNITVTLKKFPLDTLIPDGKRIIWDSRKGFIISNATYKEIGLLTCEATVNGHLYKTNYLTHRQTNTIIDVQISTPSPVTLCRGHTLVLNCTATTPANTRVQMTWSYPDEKNKNASVRRRIDQSNSHANIFYSVLTIDGMTNSDQGLYTCRVRSGPSFKSVNTSVHIYDCSGGGGSAEPKAGDATPPTCPP[gap - human IgG1 Fc]
notes: Based on VEGF-Grab3; L258A/K300G/Q302T/K304S/K306Q
B4: C84 (Fc fusion)
chain: B3 chain with A129D
notes: as for B2
B5: C79 (Fc fusion)
chain: EFGRPFVEMYSEIPEIIHMTEGRELVIPCRVTSPNITVTLKKFPLDTLIPDGKRIIWDSRKGFIISNATYKEIGLLTCEATVNGHLYKTNYLTHRQTNTIIDVQISTPSPVTLCRGHTLVLNCTATTPANTRVQMTWSYPDEKNKNASVRRRIDQSNSHANIFYSVLTIDGMTNSDQGLYTCRVRSGPSFKSVNTSVHIYDCSGGGGSGGGGSGGGGSAESKYGPP[gap - human IgG1 Fc]
notes: as for B3
B6: C85 (Fc fusion)
chain: B5 chain with A129D
notes: as for B2
B7: C80 (Fc fusion)
chain: EFGRPFVEMYSEIPEIIHMTEGRELVIPCRVTSPNITVTLKKFPLDTLIPDGKRIIWDSRKGFIISNATYKEIGLLTCEATVNGHLYKTNYLTHRQTNTIIDVQISTPSPVTLCRGHTLVLNCTATTPANTRVQMTWSYPDEKNKNASVRRRIDQSNSHANIFYSVLTIDGMTNSDQGLYTCRVRSGPSFKSVNTSVHIYDCSNTGSGGEEKKKEKEKEEQEERSSDTPP[gap - human IgG1 Fc]
notes: as for B3
B8: C86 (Fc fusion)
chain: B7 chain with A129D
notes: as for B2
B9: C82 (Fc fusion)
chain: EFGRPFVEMYSEIPEIIHMTEGRELVIPCRVTSPNITVTLKKFPLDTLIPDGKRIIWDSRKGFIISNATYKEIGLLTCEATVNGHLYKTNYLTHRQTNTIIDVQISTPSPVTLCRGHTLVLNCTATTPDNTRVQMTWSYPDEKNKNASVRRRIDQSNSHANIFYSVLTIDGMTNSDQGLYTCRVRSGPSFKSVNTSVHIYDCSSGDATPTS[gap - human IgG1 Fc with changes]
notes: as for B2
B10: C81 (Fc fusion)
chain: EFGRPFVEMYSEIPEIIHMTEGRELVIPCRVTSPNITVTLKKFPLDTLIPDGKRIIWDSRKGFIISNATYKEIGLLTCEATVNGHLYKTNYLTHRQTNTIIDVQISTPSPVTLCRGHTLVLNCTATTPANTRVQMTWSYPDEKNKNASVRRRIDQSNSHANIFYSVLTIDGMTNSDQGLYTCRVRSGPSFKSVNTSVHIYDCGSSGGSSGEPKS[gap - human IgG1 Fc and a few adjoining residues]
notes: as for B3

Experiments:
[1] = biological target: VEGF-A (UniProt P15692); assay: cell-based or functional assay
[2] = biological target: T1, PLGF; assay: BLI (Octet, AHC sensor); fold increase vs VEGF-Grab3 (Samsung Biologics)
[3] = biological target: T2, VEGF-A; assay: as above
[4] = biological target: T1, PLGF; assay: BLI (Octet, AHC sensor); fold increase vs VEGF-Grab3 (Panolos Bioscience)
[5] = biological target: T2, VEGF-A; assay: as above

IC50 (µg/ml), luciferase reporter, KDR/NFAT-RE HEK293 cells [1] [µg/mL] | Fold (KD) [2] [fold] | Fold (kdis) [2] [fold] | Fold (kon) [2] [fold] | Fold (KD) [3] [fold] | Fold (kdis) [3] [fold] | Fold (kon) [3] [fold] | Fold (KD) [4] [fold] | Fold (kdis) [4] [fold] | Fold (kon) [4] [fold] | Fold (KD) [5] [fold] | Fold (kdis) [5] [fold] | Fold (kon) [5] [fold] | Binder
0.00624 | 1.19 | 0.6 | 2 | 0.65 | 1 | 0.65 | 0.87 | 0.54 | 1.62 | > 100 | > 100 | 1.17 | B1
0.0198 | 1.11 | 0.65 | 1.69 | 0.01 | 0.01 | 0.77 | 0.81 | 0.59 | 1.37 | 1.48 | 1.07 | 1.38 | B2
0.0108 | 1.25 | 0.61 | 2.06 | 0.76 | 1 | 0.76 | 0.91 | 0.55 | 1.67 | > 100 | > 100 | 1.37 | B3
0.00616 | 1.04 | 0.65 | 1.6 | 0.77 | 1 | 0.77 | 0.76 | 0.59 | 1.29 | > 100 | > 100 | 1.38 | B4
0.00881 | 1.13 | 0.66 | 1.72 | 0.77 | 1 | 0.77 | 0.82 | 0.59 | 1.39 | > 100 | > 100 | 1.38 | B5
0.021 | 1.15 | 0.95 | 1.2 | 0.71 | 1 | 0.71 | 0.84 | 0.86 | 0.97 | > 100 | > 100 | 1.28 | B6
0.0101 | 1.2 | 0.57 | 2.11 | 0.84 | 1 | 0.84 | 0.87 | 0.51 | 1.71 | > 100 | > 100 | 1.5 | B7
0.0193 | 1.93 | 2.65 | 0.73 | 0.6 | 1 | 0.6 | 1.41 | 2.39 | 0.59 | > 100 | > 100 | 1.08 | B8
0.0217 | 1.25 | 0.82 | 1.52 | 0.01 | 0.01 | 0.78 | 0.91 | 0.74 | 1.23 | 1.53 | 1.09 | 1.4 | B9
0.00268 | 12 | 9.41 | 1.27 | < 0.01 | 0.01 | 0.8 | 8.77 | 8.51 | 1.03 | 1.12 | 0.77 | 1.44 | B10

Positions count from the first letter of the chain named. In names and notes the source's numbering stands.
